# Some of the results follow. These are noisy estimates, calculated here from bound and input reads.
# Biological target: T1, Pho4 (S. cerevisiae) (UniProt P07270)
# T1 sequence: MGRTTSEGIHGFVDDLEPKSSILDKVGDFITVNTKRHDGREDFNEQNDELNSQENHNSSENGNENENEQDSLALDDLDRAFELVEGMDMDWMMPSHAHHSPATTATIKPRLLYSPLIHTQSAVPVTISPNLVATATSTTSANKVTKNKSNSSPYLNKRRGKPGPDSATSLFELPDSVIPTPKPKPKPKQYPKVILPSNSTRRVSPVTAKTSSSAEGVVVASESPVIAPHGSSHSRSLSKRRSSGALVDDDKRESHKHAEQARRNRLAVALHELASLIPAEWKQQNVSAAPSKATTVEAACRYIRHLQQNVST
# Experiment: relative binding free energy (BET-seq); higher = weaker binding
# Conditions: reference: library average
row,Sequence,relative binding free energy [kcal/mol]
1,ATCTGCACGTGGGGCA,-0.05
2,TGTTTCACGTGTCATT,0.19
3,TAAGGCACGTGGAGTG,-0.27
4,GGTGGCACGTGAAAAA,0.31
5,AAGGCCACGTGGATGG,-0.04
6,CATTGCACGTGTAGGC,0.25
7,TCAGACACGTGTGTAT,0.26
8,GTATGCACGTGAGGTG,0.16
9,TATATCACGTGTCATT,0.12
10,AGACTCACGTGGAAGG,0.44
11,CTCGGCACGTGGGTGA,-0.25
12,CTAGTCACGTGTTTGG,-0.06
13,CGGGCCACGTGGGGGG,-0.25
14,GGTATCACGTGTGACG,0.23
15,CGTTGCACGTGAAATG,0.18
16,ATTCTCACGTGAGAGT,0.33
17,TCGTACACGTGTGAGT,0.17
18,AAGTTCACGTGTATGA,0.35
19,AGAGGCACGTGTTGTC,-0.12
20,CGTTTCACGTGAGGAT,0.26
21,AGTTGCACGTGAGATG,0.14

row,Sequence,relative binding free energy [kcal/mol]
1,GATGTCACGTGGAGTC,0.11
2,TTTTGCACGTGTCGTA,0.06
3,TTTGCCACGTGGGTTG,-0.18
4,AGTATCACGTGTAGAT,0.31
5,TTAGGCACGTGAGGAC,0.12
6,GAAGGCACGTGTGATA,0.06
7,TTCGGCACGTGGTTGT,-0.11
8,GTGCGCACGTGTGATG,-0.02
9,TTGTGCACGTGACGAT,-0.01
10,CTGGCCACGTGGAGGG,-0.21
11,TTCTTCACGTGGAGTT,0.38
12,AGCTGCACGTGGAAGG,0.08
13,TGGGCCACGTGTGGCG,0.05
14,TGGGCCACGTGTCTGT,-0.06
15,TGAGTCACGTGGTGCC,0.02
16,GTGACCACGTGGGGCT,-0.18
17,TAATGCACGTGAGTCT,0.15
18,TATATCACGTGCGTGG,0.02
19,GTAATCACGTGTTGCT,0.21
20,ATTGTCACGTGGAAAT,0.22
21,TTCAACACGTGAGGGT,0.24

row,Sequence,relative binding free energy [kcal/mol]
1,TTGGTCACGTGGCGTC,0.03
2,GAAGGCACGTGGGCTT,-0.24
3,TATTTCACGTGGTGTC,0.26
4,TGGTGCACGTGTTTAG,-0.03
5,ATGATCACGTGGTTCT,0.06
6,ATCGCCACGTGTGGTA,0.01
7,GTGGACACGTGTATGT,0.09
8,ATAGTCACGTGAGGGT,0.17
9,TTATACACGTGGCATT,0.07
10,CCTTTCACGTGGGGTG,0.09
11,TGCTCCACGTGGTTGG,-0.04
12,GGTTCCACGTGAGTAG,0.35
13,TAGTCCACGTGGATGA,0.11
14,AATGTCACGTGGGGCG,-0.07
15,TTATTCACGTGGAATT,0.45
16,CGTGTCACGTGGAGGG,0.07
17,CTCGGCACGTGAGTAG,0.14
18,TTTAACACGTGTGGAG,0.16
19,CCGGGCACGTGATAGG,0.05
20,TGGAGCACGTGTTAAT,0
21,GTTGGCACGTGCATTA,-0.07

# Reference: the BET-seq Pho4 binding data (Le et al. 2018)
